Measured values published in the antibiotic and cytotoxicity screens of Wong et al. (2023).
This is one part of the list.

Columns and labels:
HSkMC = human skeletal muscle cells; assay: cytotoxicity call (relative viability < 0.9); conditions: 10 µM
HepG2 = assay: cytotoxicity call (relative viability < 0.9); conditions: 10 µM
S. aureus RN4220 = assay: growth inhibition call (relative growth <= 0.2); conditions: 50 µM

SMILES	cytotoxicity call (HSkMC)	cytotoxicity call (HepG2)	growth inhibition call (S. aureus RN4220)
Cc1noc(C)c1NC(=O)N(C)C[C@@H]1Oc2ccc(NS(=O)(=O)c3c(C)noc3C)cc2C(=O)N([C@@H](C)CO)C[C@H]1C	inactive	inactive	inactive
C=CC(=O)N1CC[C@@H](Oc2nc(Nc3ccc(N4CCC(N5CCN(C)CC5)CC4)cc3)c(C(N)=O)nc2CC)C1	active	active	inactive
C[C@@H]1CN([C@H](C)CO)C(=O)c2cccc(NS(C)(=O)=O)c2O[C@@H]1CN(C)S(=O)(=O)c1ccccc1	inactive	inactive	inactive
CCOC(=O)[C@H]1C/C=C/C[C@H](C(=O)OCC)C(=O)O[C@H]2[C@@H](OC)O[C@H](CO)[C@@H](OC(=O)Nc3ccc(OC)cc3)[C@@H]2OC1=O	inactive	inactive	inactive
COc1ccc(NC(=O)N(C)C[C@@H]2OCCCC[C@@H](C)Oc3ccc(NS(=O)(=O)c4ccc(F)cc4)cc3C(=O)N([C@H](C)CO)C[C@H]2C)cc1	inactive	inactive	inactive
C[C@H](CO)N1C[C@H](C)[C@H](CN(C)C(=O)Cc2ccccc2)Oc2ncc(C#CC3(O)CCCC3)cc2C1=O	active	inactive	inactive
C[C@@H]1CCCCO[C@H](CN(C)C(=O)Nc2ccccc2)[C@@H](C)CN([C@H](C)CO)C(=O)c2cc(NC(=O)c3ccncc3)ccc2O1	inactive	inactive	inactive
Cn1nccc1NC(=O)/C=C/C(=O)O	inactive	inactive	inactive
CCCCCCCCCCCCCCCC[N+](C)(C)C	active	active	inactive
